Results as given in PubChem BioAssay AID540317 (National Center for Advancing Translational Sciences (NCATS), 2011).
The whole screen tested about 390,000 compounds, of which about 2,200 (0.56%) were called active. The inconclusive results got no clear call from the source; some entries with a clear call stand among them for comparison. Calls follow the shape of the dose curve; as a rule, active = well fitted inhibition curve with a large enough effect; inconclusive = small, poorly fitted or top-dose-only effect; inactive = no such curve, though single readings can be large or run the other way. Where the call is inconclusive, the potency comes from a doubtful curve fit.

These compounds were tested against Chromobox protein homolog 1 (Homo sapiens) (UniProt P83916) (assay: HTS for Inhibitors of HP1-beta Chromodomain Interactions with Methylated Histone Tails). Settings: AlphaScreen HP1-beta / biotin-H3K9me3 peptide binding; series mostly up to 114 µM.
Sequence of UniProt P83916 (P83916 whole entry, looked up): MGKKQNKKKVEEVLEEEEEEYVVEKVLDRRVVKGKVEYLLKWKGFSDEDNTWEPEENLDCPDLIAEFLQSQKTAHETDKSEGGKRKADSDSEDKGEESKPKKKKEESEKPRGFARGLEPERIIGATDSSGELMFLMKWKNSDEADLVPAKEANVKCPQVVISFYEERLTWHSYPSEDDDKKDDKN
In short: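 Compound inhibition of the preformed complex between 50 nM HP1-beta and 50 nM biotinylated H3K9me3 peptide was read by AlphaScreen. Buffer was PBS pH 7.4 with 0.01% Tween-20. Incubations ran 30 min at room temperature, with 10 ug/mL donor/acceptor beads.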
Also: nearly all actives have a fitted effect of over 70% in size.
Potency is read from the fitted curve at half-maximal effect; tags tell the direction and shape of the fitted curve.

| Compound | Potency |
| --- | --- |
| COc1cc(/C=N/N=C(/C(=O)c2ccccc2)c2ccccc2)cc(OC)c1O | inconclusive: 44.7 µM [inhibitor, partial curve] |
| CC1CCC(C(C)C)C2=C1C(C#N)(C#N)C(C#N)(C#N)C(c1ccccc1)N2 (configuration not stated) | inconclusive: 79.4 µM [inhibitor, single point] |
| CN=c1scc(-c2cccs2)n1/N=C/c1ccccc1O | inconclusive: 25.1 µM [inhibitor, partial curve, poor fit] |
| CCN1CCN(CC(=O)Nc2ccc(C)c(Br)c2)CC1 | inconclusive: 15.8 µM [inhibitor, partial curve, poor fit] |
| O=C1CC2(CCN(C(=O)c3c(F)cccc3Cl)CC2)Oc2ccccc21 | inactive |
| O=C(N/N=C/c1c[nH]c2ccccc12)c1cc(-c2ccc3ccccc3c2)n[nH]1 | inactive |
| CSCC[C@H](NC(=O)N1CCn2c1nc1ccccc12)C(=O)NCc1ccco1 | inconclusive: 28.2 µM [inhibitor, partial curve, poor fit] |
| CCn1c2ccccc2c2nc3cc(S(=O)(=O)N4CCOCC4)ccc3nc21 | inconclusive: 2 µM [inhibitor, full curve] |
| CCN(CC)CCNC(=O)CCCCn1c(=S)[nH]c2c([nH]c3ccc(OC)cc32)c1=O | inconclusive: 22.4 µM [inhibitor, full curve, poor fit] |
| S=c1[nH]nc(-c2cccs2)n1/N=C/c1cccs1 | inconclusive: 50.1 µM [inhibitor, partial curve] |
| COc1cc(OC)c(N(C)S(=O)(=O)c2cccc(C(=O)OCC(=O)NCc3ccco3)c2)cc1Cl | inconclusive: 79.4 µM [inhibitor, partial curve, poor fit] |
| Cc1c(C(=O)NC(C)CCc2ccccc2)cccc1[N+](=O)[O-] (configuration not stated) | inconclusive: 6.31 µM [inhibitor, single point] |
| Fc1ccccc1Sc1ccccc1CNC1=NCCN1 | inconclusive: 79.4 µM [inhibitor, partial curve] |
| CC(=O)Nc1cccc2cc(O)ccc12 | inconclusive: 89.1 µM [inhibitor, partial curve, poor fit] |
| COc1ccccc1CNC(=O)Nc1cccs1 | inconclusive: 79.4 µM [inhibitor, partial curve] |
| COCCSc1ccccc1C(=O)NCc1cccnc1 | inactive |
| O=C(CCCN1CCOCC1)c1ccc2c(c1)OCCO2 | inactive |
| C/C(=N\NC(=S)NCCc1ccccc1)c1cccs1 | inconclusive: 17.8 µM [inhibitor, partial curve, poor fit] |
| COc1ccc(C2CC(C)(c3ccc(OC)cc3)Nc3ccccc3N2)cc1 (configuration not stated) | inconclusive: 50.1 µM [inhibitor, partial curve] |
| O=C(NC(CO)(CO)CO)[C@@H]1CCCN1S(=O)(=O)c1cccc2cccnc12 | inactive |
| COc1ccc(C(=O)OCC(=O)NC2CCCCCC2)c(OC)c1 | inactive |
| Cc1c(/C=C/C(=O)c2cccs2)cnn1C | inconclusive: 3.55 µM [inhibitor, full curve] |
| CC(=O)c1cccc(N/C=C\c2nnnn2-c2ccc(F)cc2)c1 | inactive |
| N#Cc1nc(COc2ccccc2)oc1N1CCC(Cc2ccccc2)CC1 | inconclusive: 3.98 µM [inhibitor, full curve, poor fit] |

| Compound | Potency |
| --- | --- |
| O=S(=O)(c1ccc(-c2csc(=Nc3ccccc3)n2CCCN2CCOCC2)cc1)N1CCOCC1 | inconclusive: 50.1 µM [inhibitor, partial curve] |
| CC(C)OC(=O)C(CC(=O)O)NCc1ccccc1 (configuration not stated) | inconclusive: 3.55 µM [inhibitor, partial curve, poor fit] |
| COc1ccc(C2=[N+](C)CCn3cccc32)c(OC)c1 | inconclusive: 89.1 µM [inhibitor, single point] |
| Cc1c(N=NC2=C(O)CCCC2=O)c(=O)n(-c2ccccc2)n1C | inconclusive: 39.8 µM [inhibitor, partial curve] |
| Nc1c(-c2nc(-c3cccs3)no2)nnn1-c1cccc(F)c1 | inactive |
| Cc1cccc(-c2nc(C#N)c(N3CCCCC3)o2)c1 | inconclusive: 15.8 µM [inhibitor, full curve] |
| CCc1ccc(NC(=O)c2ccc3oc(=O)n(Cc4ccccc4)c3c2)cc1 | inactive |
| CCC(C(=O)NC1CCCC1)n1c2ccccc2c2nc(=O)cc(C)n21 (configuration not stated) | inactive |
| COCCN1CN(S(=O)(=O)c2cccc(Cl)c2)c2nc3ccccc3nc21 | inactive |
| O=C(CCS(=O)(=O)c1ccc(Br)cc1)NCCc1ccccc1 | inconclusive: 50.1 µM [inhibitor, partial curve] |
| C/C(=N\NC(=S)Nc1ccc(C)cc1)c1cc2ccccc2o1 | inconclusive: 14.1 µM [inhibitor, full curve] |
| COc1cccc(N2CCN(CC(=O)NC(=O)NCc3ccco3)CC2)c1 | inactive |
| O=S(=O)(c1ccc2c(c1)OCCO2)N1CCN(Cc2ccc3c(c2)OCO3)CC1 | inconclusive: 79.4 µM [inhibitor, single point] |
| CC(C)(C)NC(=O)c1cnn(-c2ccccc2)c1C1CCN(C(=O)OC(C)(C)C)CC1 | inactive |
| O=C1C(Cl)=C(NCCc2ccccc2)C(=O)N1CCc1ccccc1 | inactive |
| COC(=O)C1=C(C)N(C(C)c2ccccc2)C(=O)/C1=C\c1ccco1 (configuration not stated) | inconclusive: 14.1 µM [inhibitor, full curve] |
| COc1ccc(-c2nnc3ccc(SCC(=O)Nc4cc(C)on4)nn23)cc1OC | inconclusive: 89.1 µM [inhibitor, single point] |
| COc1ccccc1/C=C/C=N/NC(=O)c1ccc(=O)n(C)c1 | inconclusive: 39.8 µM [inhibitor, single point] |
| COc1ccc(-c2csc(NC(=O)C3CC(=O)N(Cc4ccco4)C3)n2)cc1 (configuration not stated) | inconclusive: 70.8 µM [inhibitor, single point] |
| CCN(C(=O)COC(=O)c1ccc(Cl)c(S(=O)(=O)N2CCCCC2)c1)C1CCS(=O)(=O)C1 (configuration not stated) | inactive |
| O=C(C[C@H]1C[C@H](C(=O)N2CCOCC2)[C@@]2(CCC3CCCC3)c3[nH]c4cc(-c5ccco5)ccc4c3CCN2C1=O)NCCCn1ccnc1 | inconclusive: 50.1 µM [inhibitor, partial curve] |
| COCCNCCOc1ccccc1-c1ccccc1 | inconclusive: 79.4 µM [inhibitor, single point] |
| CC(C)Sc1nc2c(c(=O)[nH]c(=O)n2C)n1Cc1ccc(Cl)cc1 | inconclusive: 100 µM [inhibitor, single point] |
| CCn1c(-c2csc(C(C)C)c2)n[nH]c1=S | inconclusive: 39.8 µM [inhibitor, single point] |

| Compound | Potency |
| --- | --- |
| COC(=O)c1ccc(COc2ccc(/C=N/Nc3cccc(C(=O)O)c3)cc2)cc1 | inconclusive: 56.2 µM [inhibitor, single point] |
| O=[N+]([O-])c1cccc(C2Nc3cccc4cccc(c34)N2)c1 | inconclusive: 56.2 µM [inhibitor, partial curve, poor fit] |
| CN(CCN(C)C(C)(C)C)C(=O)C(c1ccccc1)c1ccccc1 | inconclusive: 56.2 µM [inhibitor, single point] |
| CC(C)(C)C1CCc2c(sc(NC(=O)c3cc(-c4ccc(F)cc4)on3)c2C#N)C1 (configuration not stated) | inactive |
| C=CCN1C(c2ccc(Br)cc2)=CS/C1=C(/C#N)c1nnc(N2CCOCC2)n1-c1ccccc1 | inconclusive: 31.6 µM [inhibitor, full curve] |
| Cc1ccccc1[C@@H](NC(=O)OC(C)(C)C)C(=O)OC(C)(C)C | inactive |
| CCCN(c1ccccc1F)S(=O)(=O)c1cc(-c2cc(C)no2)ccc1C | inactive |
| CCN(CC)S(=O)(=O)c1ccc2oc(C(=O)NC(C)C)c(C)c2c1 | inconclusive: 35.5 µM [inhibitor, single point] |
| COc1ccc(/C=C/C(=O)c2ccccc2)cc1COc1ccccc1F | inactive |
| CCc1nnc(NC(=O)C2CCCN2S(=O)(=O)c2ccc(C)cc2)s1 (configuration not stated) | inactive |
| Cc1ccnc(Nc2nc(-c3ccc(F)cc3)cs2)c1 | inactive |
| Cc1ccc(NC(=S)NNC(=S)Nc2ccc(C)cc2C)cc1 | inconclusive: 28.2 µM [inhibitor, partial curve, poor fit] |
| Cn1c(N2CCOCC2)nc(-c2ccccc2)c1-c1ccccc1 | inactive |
| CN(C)c1ccc(-c2nc3ccc(Cl)cn3c2Nc2ccc3c(c2)OCCO3)cc1 | inconclusive: 12.6 µM [inhibitor, partial curve] |
| O=C(COc1ccc(Br)cc1CO)Nc1ccccc1F | inactive |
| O=[N+]([O-])c1c(NCCCO)cc(Sc2ccc(Cl)cc2)c2nonc12 | inactive |
| CN1CCN(C(c2ccc(Cl)cc2)c2cc(Cl)c3cccnc3c2O)CC1 (configuration not stated) | inconclusive: 6.31 µM [inhibitor, partial curve] |
| O=C(O)COc1ccccc1C(Nc1cccnc1)c1cc(Cl)c2cccnc2c1O (configuration not stated) | inconclusive: 14.1 µM [inhibitor, full curve] |
| COc1ccc(NC(=O)c2cc(C3CC3)nc3c2c(C)nn3-c2ccccc2)c(OC)c1 | inactive |
| CCOc1ccc(/C=C/c2nc(C#N)c(NCc3ccc(OC)cc3)o2)cc1 | inactive |
| CCCNC(=O)c1nnsc1S(=O)(=O)c1ccc(Cl)cc1 | inactive |
| CCOC(=O)NC(N(O)c1cccc(Cl)c1)C(Cl)(Cl)Cl (configuration not stated) | inactive |
| CC(C)(C)CC(C)(C)NCC(=O)Nc1c2c(nc3ccccc13)CCC2 | inconclusive: 20 µM [inhibitor, partial curve, poor fit] |
| COc1ccc(C(c2nnnn2C2CCCCC2)N2CCN(c3ccc(OC)cc3)CC2)cc1 (configuration not stated) | inconclusive: 15.8 µM [inhibitor, full curve, poor fit] |
